Assay results published in PubChem BioAssay AID493208 (National Center for Advancing Translational Sciences (NCATS), 2011).
Screen size: about 44,000 compounds; about 340 (0.77%) were called active. Another 5% or so got no clear call; they are omitted. Calls come from the whole dose curve; as a rule, active = well fitted inhibition curve with a large enough effect; inconclusive = small, poorly fitted or top-dose-only effect; inactive = flat fitted curve, though single readings scatter. The list shows a part of the results.

Assay: Acumen qHTS Assay for Inhibitors of the mTORC1 Signaling Pathway in MEF (Tsc2-/-, p53-/-) Cells: Sytravon;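 note: plate controls were DMSO for no effect and rapamycin for full effect; nearly all actives have a fitted effect of over 50% in size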
Settings: phospho-rpS6 immunofluorescence/PI, 24 h; series mostly up to 38.3 µM; activity change, negative = inhibition: at the top concentration
Procedure, shortened: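 Readout is phospho-S6 Alexa 488 signal normalized to PI per well, reported as % active cells with thresholds set from rapamycin (7.5 nM) and DMSO controls. Cells: Tsc2-/-, p53-/- MEFs, 24 hrs compound at 37 C; PI cell number serves as viability.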

Activity change, negative = inhibition, inactive:
CCOC(=O)c1cc(C)n(CC2CCC(C(=O)Nc3ccc(OCC)cc3)CC2)c1C (centres undefined) 3.27%
CCC(C(=O)N1CCN(c2ccccc2F)CC1)n1nc(C)c2sc3ccccc3c2c1=O (centres undefined) -5.22%
COc1cc(CN(C(=O)c2cccc(Cl)c2)c2ccccn2)cc(OC)c1OC -0.775%
COc1ccc(NC(=O)CCn2nc(-c3ccccc3OC)c3c(C)cc(C)nc32)cc1 0.624%
Cc1ccc(Cl)cc1N1CCN(C(=O)c2cccn3c(=O)c4cc(Cl)ccc4nc23)CC1 -2.13%
Cc1ccc(-n2nc(C(=O)Nc3ccc(Cl)cn3)c3c4ccccc4n(C)c3c2=O)cc1 0.419%
CC1=C(C(=O)OCC(C)C)C(c2ccc(OCc3ccccc3)cc2)N2C(=O)CCSC2=N1 (centres undefined) -27.7%
COc1ccc(NC(=O)CSc2nc(-c3ccco3)cc(C(F)(F)F)n2)c(OC)c1 -0.771%
CCCCN(C)C(=O)C1CCC(CNS(=O)(=O)c2ccc3c(c2)CC(C)N3C(C)=O)CC1 (centres undefined) -8.75%
CCN(CC)C(=O)Cn1c(SCCOc2ccc(Cl)cc2)nc2ccccc21 3.64%
CCCc1nn2c(=O)cc(COc3ccc(/C=C(\C#N)C(=O)Nc4ccc(F)cc4)cc3)nc2s1 1.25%
CC(=O)N1c2ccccc2C(=O)C1N1CCN(c2ccc(F)cc2)CC1 (centres undefined) -5.31%
COc1ccc(NC(=O)c2ccc(CNS(=O)(=O)c3ccc4c(c3)C(C)(C)C(=O)N4C)cc2)cc1 -10.8%
COc1cccc(-n2c(=O)c3c(C)c(C(=O)N(C)C)sc3n(CC(=O)Nc3ccc(C)cc3Cl)c2=O)c1 0.0276%
O=C(Nc1ccc2c(c1)N(C1CCCC1)C(=O)c1ccccc1S2)c1cccc(F)c1 -2.63%
COc1cccc(CNC(=O)C2CCCN(c3ncnc4onc(-c5ccc(F)cc5)c34)C2)c1 (centres undefined) -0.465%
Cc1c(C)n(Cc2ccccc2)c2ccc(C(=O)NCCc3ccccc3Cl)cc12 -3.28%
CC(C)OCCCNC(=O)CN1C(=O)CSc2ccc(S(=O)(=O)N3CCCCC3)cc21 6.33%
Cc1ccc(Cl)cc1NCc1nnc2n1CCCCC2 5.44%
O=C(NCCc1csc(-c2cccc(F)c2)n1)c1ccc(Br)o1 -10.5%
O=C1CC(c2nc(-c3cccc(Cl)c3)no2)CN1c1ccc2c(c1)OCCO2 (centres undefined) -1.03%
Cc1n[nH]c(C)c1S(=O)(=O)N(CC(=O)NCc1ccccc1Cl)c1ccc(C(C)C)cc1 -9.66%
Cc1ccc(-n2nnnc2C2CCN(S(=O)(=O)c3ccc(OC(F)(F)F)cc3)CC2)cc1 -1.89%
CCN(C(=O)Cn1c(=O)oc2cc(S(=O)(=O)N3CCCC3)ccc21)c1cccc(C)c1 -3.52%
Cc1cc(C)cc(NC(=O)CN(C)S(=O)(=O)c2ccc3[nH]c4c(c3c2)CCCC4)c1 0.176%
CCOc1ccc(CCNC(=O)c2c(C)oc3ncnc(N4CCOCC4)c23)cc1 -12.2%
COCCCNC(=O)CSc1nc2ccccc2c(=O)n1Cc1ccco1 0.536%
Cc1ccc(NC(=O)CN2C(=O)COc3ccc(S(=O)(=O)N4CCCCCC4)cc32)cc1C -2.9%
CCOc1cccc(CNc2ccc(O)cc2)c1OCc1ccccc1Cl -9.35%
CCc1nnc2c(NCCc3ccc(OC)c(OC)c3)nc3ccccc3n12 4.24%
Cc1ccc(C)c(N2CCN(C(=O)CCS(=O)(=O)c3ccc4c(c3)CC(=O)N4C)CC2)c1 -10.9%
COc1ccc(-c2onc(C)c2C)cc1S(=O)(=O)NCc1ccc(Br)cc1 -6.04%
CCc1ccc(NC(=O)CC2C(=O)N(c3ccc(Cl)cc3)C(=O)N2Cc2cccs2)cc1 (centres undefined) 0%
COc1cccc(C2CC(=O)Nc3c2c(=O)n(C)c2ncnn32)c1OC (centres undefined) 4.08%
COc1ccc(OC)c(S(=O)(=O)Nc2cc3c(C(C)=O)c(C)oc3c3ccccc23)c1 8.86%
COC(=O)c1c(NC(=O)COc2cc(C)c(Cl)c(C)c2)sc2c1CCCC2 -4.34%
CCOc1ccc(NS(=O)(=O)c2ccc3c(c2)CCN3C(C)=O)cc1 -2.73%
COc1ccc(-c2nnc(SCC(=O)Nc3ccc(C(C)=O)cc3)nc2-c2ccc(OC)cc2)cc1 3.3%
CC(Oc1ccc(F)cc1)C(=O)Nc1cc(-c2ccc(F)c(F)c2)no1 (centres undefined) 0%
Cc1ccc(S(=O)(=O)NCC2CCC(C(=O)N(C)Cc3ccccc3)CC2)cc1 (centres undefined) -0.957%
Cc1ccc(OCC(=O)N(Cc2ccco2)C2CCS(=O)(=O)C2)cc1 (centres undefined) 0%
COc1ccc(-c2cccc(NS(=O)(=O)c3ccc(C)s3)c2)nn1 2.11%
COCCCNC(=O)c1oc2c(c1C)-c1nn(Cc3ccc(Cl)cc3)cc1CC2 4.11%
Cn1cc(CCC(=O)NCc2ccc(Cl)cc2)c2ccccc21 -1.15%
Cc1cc(C)cc(NS(=O)(=O)c2ccc(-n3cccn3)cc2)c1 -4.95%
CCOc1cc(CNc2ccc(C(=O)O)cc2)ccc1OCc1ccccc1 -4.56%
CC1CCC(Nc2ncnc3onc(-c4ccc(F)cc4)c23)CC1 (centres undefined) 1.69%
O=C(O)c1c(-c2ccccc2)oc2ccc(OCc3ccc(Cl)c(Cl)c3)cc12 -10.1%
COc1cccc(-n2c(=O)c3c(C)c(C)sc3n(CC(=O)Nc3ccccc3OC)c2=O)c1 4.97%
CCc1ccc(CNCc2c(C(=O)O)c(C)n(Cc3c(F)cccc3Cl)c2C)cc1 -2.85%
Cn1c(=O)n(C)c2cc(N3CCOCC3)c(NS(=O)(=O)c3ccc(C(C)(C)C)cc3)cc21 0.301%
Cc1ccccc1CC1C(=O)Nc2ccc(Br)cc21 (centres undefined) -14.3%
CCOc1cccc(C(=O)N(Cc2ccc(N(C)C)cc2)CC2CCCO2)c1 (centres undefined) -4.1%
CCc1ccccc1NC(=O)N1CCC(CN2CCc3ccccc3C2)CC1 2.46%
Cc1ccc(C(=O)CCC(=O)Nc2ccc(C)cc2C)cc1 -1.85%
CCOc1ccc(N(C(=O)c2ccccc2F)S(=O)(=O)c2ccc3c(c2)n(C)c(=O)n3C)cc1 2.84%
CC1CCN(S(=O)(=O)c2ccc3c(ccc(=O)n3CC(=O)Nc3ccc(C(C)C)cc3)c2)CC1 -7.22%
CCOC(=O)c1c(-c2ccc(C)cc2)csc1NC(=O)c1cc(-c2ccc(Cl)cc2)on1 -8.87%
CS(=O)(=O)N(CC(=O)Nc1ccc(Br)cc1)c1ccccc1Br -0.0914%
CNC(=O)Cn1nc(-c2ccc(Cl)cc2)c2ccccc2c1=O -20.4%
CCCCC(CC)CNC(=O)CN(C)S(=O)(=O)c1ccc2c(c1)c(=O)n(C)c(=O)n2C (centres undefined) -9.47%
COc1ccc(NC(=O)CSC2=Nc3ccccc3C3=NC(CCC(=O)NCc4ccc(F)cc4)C(=O)N23)cc1Cl (centres undefined) -20.5%
COc1cccc(N2CCN(C(=O)C3CCN(S(=O)(=O)c4cccc5nonc45)CC3)CC2)c1 -7.99%
Cc1cc(NC(=O)CCNS(=O)(=O)c2ccc3c(c2)CCCC(=O)N3)ccc1Br 6.77%
Cc1ccc(CN(C(=O)COc2ccc(Cl)cc2)c2ccccn2)o1 -2.17%
CCOc1ccccc1NC(=O)c1c(NCc2ccc(C)o2)sc2c1CCC(C)C2 (centres undefined) -9.75%
COc1ccc(CCNC(=O)Cn2nc(C)n3c(cc4cc(F)ccc43)c2=O)cc1OC -16.8%
COc1ccc(S(=O)(=O)Nc2ccc3oc4c(c3c2)C(=O)CC(C)(C)C4)cc1 -15.9%
CCCCN(C)C(=O)Cn1c(C2CC(=O)N(c3ccc(C)cc3)C2)nc2ccccc21 (centres undefined) 2.42%
Cc1ccc(C)c(N2CCN(C(=O)c3cc4c(=O)n(Cc5ccco5)ccc4nc3C)CC2)c1 -15.7%
COc1cccc(C(=O)Nc2cccc(NC(=O)c3ccc(Cl)cc3Cl)c2)c1 -3.69%
CCOc1ccc(CNC(=O)CCCn2nc(C)c3sc4ccccc4c3c2=O)cc1 4.95%
CCC(C)Nc1sc(S(=O)(=O)CC)nc1S(=O)(=O)c1ccc(C)cc1 (centres undefined) -8.79%
COC(=O)c1cc(S(=O)(=O)NCC2CCN(Cc3ccc(C)cc3)CC2)cn1C 2.81%
CCCOc1ccc(-c2nn(-c3ccccc3)cc2C2NC(=O)NC(C)=C2C(=O)OC)cc1 (centres undefined) -19.8%
CCc1ccc(C(=O)c2cn(CC(=O)Nc3cc(OC)ccc3OC)c3ccc(C)cc3c2=O)cc1 -0.813%
Cc1cccc(NS(=O)(=O)c2ccc3c(c2)[C@H]2C=CC[C@H]2[C@@H](c2ccc(F)cc2)N3)c1 -29.7%
Cc1ccc(C)c(NC(=O)Cn2c(=O)nc(-c3ccccc3)c3ccccc32)c1 6.05%
COc1ccc(C)cc1NC(=O)C1CCN(S(=O)(=O)c2ccc3c(c2)CCCN3C(C)=O)CC1 1.89%
O=C(Nc1ccc(N2CCN(c3ccc(F)cc3)CC2)c(C(=O)O)c1)c1ccccc1F 3.88%
CC1=C(C(=O)Nc2cccnc2)C(c2ccccc2)n2nc(SCc3ccccc3Cl)nc2N1 (centres undefined) -7.31%
Cc1ccc(CCNC(=O)Cn2ncc3c([nH]c4ccc(C)cc43)c2=O)cc1 -6.65%
CCOC(=O)c1ccc(NC(=O)CSc2nc3ccccc3c(=O)n2CCNC(C)=O)cc1 0.438%
CCc1ccc(NC(=O)CN2C(=O)C(c3ccc(F)cc3)=NC2(C)C)cc1 2.38%
CCCN(CCC)CCNC(=O)Cn1cc2c(n1)-c1c(oc(C(=O)N3CCCC3)c1C)CC2 -2.9%
COc1ccc(OC)c(NC(=O)CSc2cn(CC(=O)N3CCCCCC3)c3ccccc23)c1 -9.3%
O=C(CS(=O)(=O)c1cccc2nsnc12)Nc1ccc(F)cc1 -10.2%
COC(=O)c1cc(S(=O)(=O)NCC2CCN(Cc3ccc(F)cc3)CC2)c[nH]1 6.96%
COCCNC(=O)CSc1nc2cc3c(cc2c(=O)n1CCCC(=O)NCc1ccc(OC)cc1)OCO3 -5.42%
CCSc1ncc(Cl)c(C(=O)N(Cc2ccc(N(C)C)cc2)Cc2ccco2)n1 -1.85%
COCCNC(=O)c1ccc2c(c1)N(Cc1cc(C)ccc1C)C(=O)c1ccccc1S2(=O)=O 0.792%
Cc1ccc(NC(=O)CSc2nc3ccccc3nc2Cc2ccccc2)c(C)c1 0%
Cc1cc(NCc2ccccc2Cl)n2cnnc2n1 -17.5%
CCOc1ccc(Cn2c(-c3ccc(OCC)c(OC)c3)nc3ccccc32)cc1OC 6.35%
